These results are taken from PubChem BioAssay AID1508642 (National Center for Advancing Translational Sciences (NCATS), 2021).

Each structure is given as a SMILES string. Screen size: about 43,000 compounds; about 200 (0.47%) were called active. Another 12% or so got no clear call; they are omitted. Calls come from the whole dose curve; as a rule, active = well fitted cell-killing curve with a large enough effect; inconclusive = small, poorly fitted or top-dose-only effect, or effect the other way; inactive = flat fitted curve, though single readings scatter. The list shows a part of the results.
% is set by controls: 0 for no effect and ±100 for the full control effect.

This assay can be described thus: Cell viability qHTS assay in S16 Pmp22-F2sN cells. Note: nearly all actives have a fitted effect of over 65% in size. To be noted: S16 Pmp22-F2sN Schwann cells (luciferase reporters placed in the Pmp22 gene) viability, CellTiter-Glo, 24 h; series mostly up to 57.5 µM; activity change, negative = cytotoxicity: at the top concentration. An outline of the steps:
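Luminescence from CellTiter-Glo, read by CCD camera after a 15 min room-temperature incubation, served as the viability signal. Reporter Schwann cells (S16 Pmp22-F2sN) had been treated with pin-transferred compounds for 24 h at 37C.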
On the technique in general: qHTS replaces the single test concentration by a dilution series.
As for `COc1cccc(NC(=O)CSc2ncc(S(=O)(=O)c3ccc(C)c(C)c3)c(=O)[nH]2)c1`, the “activity change, negative = cytotoxicity” value was inactive: 18.7%.
The same measure for `O=C(COc1ccc(F)cc1)Nc1ccc2nc(SCC(=O)N3CCc4ccccc43)sc2c1`: inactive: 12.5%; for `Cc1cc(C)c(NC(=O)c2cc3sc(Cl)cc3n2C)c(C)c1`: inactive: -0.729%; for `COc1ccccc1CNC(=O)c1ccc(N2CCCC2)c(NC(=O)NCCC(C)C)c1`: inactive: 6.06%.
For the compound `Cc1ccc(C)c(CN2C(=O)c3ccccc3S(=O)(=O)c3ccc(C(=O)N4CCCCCC4)cc32)c1`, the “activity change, negative = cytotoxicity” value was inactive: -8.06%.
For `O=C(NCC(c1ccco1)S(=O)(=O)c1cccs1)c1ccc(F)cc1` (stereo not drawn), the “activity change, negative = cytotoxicity” value was inactive: 6.28%.
Next, `CCOC(=O)c1ccc2oc(=O)n(Cc3ccccc3)c2c1`: inactive: -2.29%.
Take `CCc1c(-c2ccccc2)nc2ccccc2c1C(=O)NCCc1ccccc1`: the “activity change, negative = cytotoxicity” value was inactive: 18.1%.
For the compound `Cc1csc2nc(COc3ccccc3NC(=O)c3ccco3)cc(=O)n12`, the “activity change, negative = cytotoxicity” value was inactive: 4.8%.
The same measure for `CSc1cccc(NC(=O)Cn2c3ncccc3c(=O)n2-c2ccc(C)cc2)c1`: inactive: -8.71%; for `CC(=O)c1ccc(N2CCN(S(=O)(=O)c3ccc(-c4cc(C(F)(F)F)on4)s3)CC2)cc1`: inactive: -0.227%.
The same measure for `COc1ccc(NC(=O)c2oc3ccccc3c2NC(=O)c2cc3ccccc3o2)cc1`: inactive: -3.61%.
Next, `Cc1ccccc1S(=O)(=O)Cc1ccc(C(=O)NC2CCCCC2)o1`: inactive: 9.51%; `CCOc1ccc(NS(=O)(=O)c2ccc3[nH]cc(C(=O)N(C)Cc4ccccc4)c(=O)c3c2)cc1`: inactive: 4.85%.
For the compound `COc1ccc2c(c1)CC(NC(=O)Nc1c(C)cc(C)cc1C)CO2` (stereo not drawn), the “activity change, negative = cytotoxicity” value was inactive: 20%.
In the case of `CC(=O)N1CCc2c(sc3c2c(=O)n(-c2ccccc2)c(=O)n3CC(=O)Nc2ccccc2C)C1`, the “activity change, negative = cytotoxicity” value was inactive: -0.414%.
Next, `COc1ccc(C)cc1S(=O)(=O)N1CCN(c2cccc(Cl)c2)CC1`: inactive: 0.111%; `Cc1cccc(-n2c3nc(=O)[nH]c(=O)c-3cc3c(Cl)cccc32)c1C`: inactive: -9.5%.
Next, `CCOc1cccc2cc(-c3nc4ccc(C(=O)O)cc4[nH]3)c(=O)oc12`: inactive: 5.98%; `CCOc1ccc(NC(=O)CSc2nnc3scc(-c4ccc(Cl)cc4)n23)cc1`: inactive: -2.27%; `Cc1ccc(NS(=O)(=O)c2ccc3c(c2)NC(=O)CCS3)cc1C`: inactive: -6.69%.
The same measure for `Cc1ccccc1-n1c(/C=C/c2c(C)n(C)c3ccccc23)nc2ccccc2c1=O`: inactive: 0.741%.
Consider `CC(C)(C)OC(=O)N1CCC(c2c(C(=O)N3CCN(c4ncccn4)CC3)cnn2-c2ccccc2)CC1`, for which the “activity change, negative = cytotoxicity” value was inactive: -3.34%.
Next, `CCOC(=O)CNC(=O)N1CCc2cc(S(=O)(=O)N3CCC(C)CC3)ccc21`: inactive: 25.9%; `CCOC(=O)c1ccc(N2C(=O)c3n[nH]c(C)c3C2c2ccc(C(C)(C)C)cc2)cc1` (stereo not drawn): inactive: 5.1%; `CNC(=O)C1CCC(Cn2c(=O)[nH]c3ccsc3c2=O)CC1` (stereo not drawn): inactive: -1.27%.
The same measure for `CCOC(=O)c1ccc(NC(=O)COCc2cc(-c3ccc4c(c3)OCO4)on2)cc1`: inactive: 14.5%; for `CCOC(=O)c1cccc(NC(=O)c2cc(CN3CCOCC3)on2)c1`: inactive: 3.27%; for `CSc1ccc(CNc2ncc(-c3ccccc3)n2C)cc1`: inactive: -0.132%.
Next, `CCC(O)c1cc2c(cc1NC(=O)c1cccc(Br)c1)OCCO2` (stereo not drawn): inactive: 24.9%; `CCCSc1ncc(Cl)c(C(=O)N(Cc2ccc(N(C)C)cc2)C2CCS(=O)(=O)C2)n1` (stereo not drawn): inactive: -4.31%.
Turning to `COc1ccc(NC(=O)Cn2cnc3sc(C)c(S(=O)(=O)N4CCN(C)CC4)c3c2=O)cc1Cl`, the “activity change, negative = cytotoxicity” value is inactive: 0.491%.
Next, `Cc1nc2ccccc2n1CCc1nc2c3ccccc3nc(SCC(=O)Nc3ccc(Br)cc3F)n2n1`: inactive: 13.1%.
On to `COc1ccc(-c2nc3ccccc3o2)cc1NC(=O)C(C)Oc1ccc(Cl)cc1Cl` (stereo not drawn), for which the “activity change, negative = cytotoxicity” value is inactive: 0.31%.
Next, `CC(C)C12CN3CC(C(C)C)(CN(C1)C3c1ccc(Cl)cc1)C2=O` (stereo not drawn): inactive: 18.5%; `CN1CCN(c2oc(-c3ccc(COc4ccc(Cl)cc4)o3)nc2C#N)CC1`: inactive: 2.74%.
Next, `N#Cc1nc(-c2ccc(COc3ccccc3)o2)oc1NCc1ccccc1`: inactive: 1.94%; `Cc1ccc(CNC(=O)CSc2nc(=O)[nH]c3c2CCCC3)cc1`: inactive: 2.09%.
Next, `COCCc1nn2c(=O)cc(COC(=O)COc3ccc(F)cc3)nc2s1`: inactive: -10.4%.
For `CCCOC(=O)c1c(NC(=O)C2c3ccccc3Oc3ccccc32)sc2c1CCC(C)C2` (stereo not drawn), the “activity change, negative = cytotoxicity” value is inactive: -1.89%.
The same measure for `Cc1ccc2oc(-c3ccc(C)c(NC(=O)c4ccc(C(C)(C)C)cc4)c3)nc2c1`: inactive: 3.97%; for `COc1cccc(CNC(=O)c2nn(-c3ccccc3Cl)nc2CO)c1`: inactive: -18.2%.
In the case of `Cc1ccccc1C(=O)NCc1nc2cccnc2n1Cc1ccccc1`, the “activity change, negative = cytotoxicity” value was inactive: 11.3%.
The same measure for `COc1ccccc1C(=O)n1nc(-c2ccco2)nc1NCc1ccc(Cl)cc1`: inactive: 5.14%; for `COc1ccc(N2CCN(C(=O)c3ccc4c(c3)N(Cc3ccc(F)cc3)C(=O)c3ccccc3S4=O)CC2)cc1` (stereo not drawn): inactive: 15.1%.
Next, `COc1ccc(S(=O)(=O)c2c(Nc3ccc(F)cc3)sc(C(=O)c3ccc4c(c3)OCO4)c2N)cc1`: inactive: 1.81%; `CCN1CCN(C(c2ccccc2)c2sc3nc(-c4ccco4)nn3c2O)CC1` (stereo not drawn): inactive: 0.873%.
The same measure for `CCOc1ccccc1C(=O)Oc1c(Sc2ccccc2)c(C)nn1C(C)(C)C`: inactive: -7.18%.
